The whole screen tested about 48,000 compounds, of which about 550 (1.1%) were called active. Another 4% or so got no clear call; they are omitted. Cut-off read from the data, not from the text of the source: active = potency below about 15 µM; inconclusive = mostly about 16 µM to 33 µM; inactive = weaker than that. The list shows a part of the results.
Biological target: Lysosomal acid glucosylceramidase (Homo sapiens) (UniProt P04062)
Assay: Glucocerebrosidase;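 note: the screen sought inhibitors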
Details: purified enzyme, resorufin glucoside fluorescence (screen aimed at inhibitors), 20 min
In short: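 Wild-type enzyme at 0.2 nM final in 50mM citric acid/KH2PO4, 10mM sodium taurocholate, 0.01% tween-20, pH 5.9, with resorufin beta-D-glucopyranoside at 30 uM final. Compounds titrated, 20 min at RT, red fluorescence read; AC50 from titration.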
Potency is the fitted concentration of half-maximal effect.

Sequence of UniProt P04062 (P04062 whole entry, looked up): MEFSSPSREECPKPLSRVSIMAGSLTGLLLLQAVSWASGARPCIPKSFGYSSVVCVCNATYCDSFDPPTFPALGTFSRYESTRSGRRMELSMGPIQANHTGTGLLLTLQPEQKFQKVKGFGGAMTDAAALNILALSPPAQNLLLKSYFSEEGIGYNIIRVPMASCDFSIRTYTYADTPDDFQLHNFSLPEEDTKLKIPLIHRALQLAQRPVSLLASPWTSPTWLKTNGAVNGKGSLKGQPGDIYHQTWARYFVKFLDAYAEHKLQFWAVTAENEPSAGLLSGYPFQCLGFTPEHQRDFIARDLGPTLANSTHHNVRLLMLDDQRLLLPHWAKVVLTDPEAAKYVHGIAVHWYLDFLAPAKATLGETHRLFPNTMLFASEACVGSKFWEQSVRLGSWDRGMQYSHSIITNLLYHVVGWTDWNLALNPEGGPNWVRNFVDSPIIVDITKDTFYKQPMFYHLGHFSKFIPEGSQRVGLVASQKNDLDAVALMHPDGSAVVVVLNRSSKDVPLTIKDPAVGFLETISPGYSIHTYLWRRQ

Potency, inactive:
CC(C(=O)NCc1cccs1)n1cccc1 (configuration not stated) > 76.9 µM, Cc1cc2cc3c(cc2nc1SCC(=O)N1CCN(C(=O)c2ccco2)CC1)OCO3 > 76.9 µM, O=C(NCCCN1CCOCC1)c1csc2c1CCCC2 > 76.9 µM, CCOC(=O)C1C(=O)C=C(C)C(C(=O)OCC)C1c1ccc(OC)cc1 (configuration not stated) > 76.9 µM, COc1ccc(C(=O)CSc2nnc(-c3cc(C)cc(C)c3)o2)cc1 > 76.9 µM, CCOC(=O)N1CCC(NC(=O)CCC(=O)N2CC(C)Oc3ccc(Cl)cc32)CC1 (configuration not stated) > 76.9 µM, COCCSc1nnc(-c2cccc(C#N)c2)n1C > 76.9 µM, Cc1ccc(C(=O)OCc2cn3ccccc3n2)cc1 > 76.9 µM, CCOC(=O)C1=C(N)OC2=C(C(=O)CCC2)C1c1cccnc1 (configuration not stated) > 76.9 µM, CCCCCCSc1nsc(NC(C)=O)n1 > 76.9 µM, CC(C)=CC(=O)OCC(=O)Nc1ccccc1Cl > 76.9 µM, O=C(COc1ncnc2ccc(Br)cc12)N1CCOCC1 > 76.9 µM, O=C(Nc1nccs1)c1ccc(COc2ccc(F)cc2)o1 > 76.9 µM, c1ccc(-c2csc(Nc3cccnc3)n2)nc1 > 76.9 µM, CCOC(=O)CNc1c(-c2ccc(F)cc2)nc2cnccn12 > 76.9 µM, CCOC(=O)c1c(C)c(C(=O)NCc2ccccn2)c(C)n1C > 76.9 µM, OCCOCCOCCn1c2ccccc2c2ccccc21 > 76.9 µM, CCC(=O)N1CCc2cc(S(=O)(=O)N3CCN(c4ccccn4)CC3)ccc21 > 76.9 µM, O=C(Cn1cnc2c(nnn2-c2ccc(F)cc2)c1=O)NCC1CCCO1 (configuration not stated) > 76.9 µM, CCNc1ccc2c(Cl)cc(=O)oc2c1 > 76.9 µM, CCOC(=O)C1(C(F)(F)F)N=C(c2cccnc2)OC(N2CCOCC2)=N1 (configuration not stated) > 76.9 µM, COCCNC(=O)C(c1ccc(F)cc1)N(Cc1ccco1)C(=O)CCC(=O)Nc1nccs1 (configuration not stated) > 76.9 µM, COc1ccccc1NC(=O)C(CCS(C)(=O)=O)N1C(=O)c2ccccc2C1=O (configuration not stated) > 76.9 µM, CC(C(=O)Oc1ccc2c(c1)OCO2)N1C(=O)c2ccccc2C1=O (configuration not stated) > 76.9 µM, O=c1[nH]c(=O)n(CCO)c2nnn(Cc3ccccc3)c12 > 76.9 µM, CCCNC(=O)NC(=O)CN1C(=O)NC(C)(c2ccc(C)cc2)C1=O (configuration not stated) > 76.9 µM, COC(=O)CN1CCN(C(=O)c2ccc(F)cc2)c2ccccc2C1 > 76.9 µM, CC(C)CCn1c(SCCc2ccccc2)nc2c1c(=O)[nH]c(=O)n2C > 76.9 µM, O=C(CCC(=O)N(c1cccc(F)c1)C(C(=O)NC1CCCC1)c1ccncc1)Nc1cccnc1 (configuration not stated) > 76.9 µM, Cc1ccnc(NC(=O)C23CC4CC(CC(C4)C2)C3)c1, Cc1ccc(S(=O)(=O)N(CC(=O)O)Cc2ccccc2)cc1 > 76.9 µM, CC(=O)OCc1cc2cc(C)ccc2[nH]c1=O > 76.9 µM, O=C(c1ccncc1)N(Cc1ccco1)Cc1cc2ccccc2[nH]c1=O > 76.9 µM, COc1ccc(-n2cnc3c(cnn3CCC#N)c2=N)cc1 > 76.9 µM, COc1cc2c(cc1OC)C(C(=O)Nc1ccc3c(c1)OCCO3)C(c1cccnc1)N(C)C2=O (configuration not stated) > 76.9 µM, COc1ccc(Cn2c(=O)n(Cc3ccco3)c(=N)c3c4c(sc32)COC(C)(C)C4)cc1 > 76.9 µM, COC(=O)c1nc(N)sc1-c1ccccc1 > 76.9 µM, O=C(NCCSc1ccccc1)c1ccco1 > 76.9 µM, CCCCn1c(=O)c2ccccc2c2ccccc2c1=O > 76.9 µM, CCOc1cc(S(=O)(=O)n2c(C)nc3ccccc32)ccc1F > 76.9 µM, Nc1nc2nc(SCC(=O)N3CCCc4ccccc43)[nH]c2c(=O)[nH]1 > 76.9 µM, COC(=O)c1ccccc1NC(=O)CC#N > 76.9 µM, CCC(=O)Nc1cc(Cl)ccc1N1CCN(C(=O)CC)CC1 > 76.9 µM, CCOC(=O)Cn1nnnc1C(CC)N(Cc1cc2c(C)cc(C)cc2[nH]c1=O)C1CCCC1 (configuration not stated) > 76.9 µM, Cc1ccc2[nH]c(=O)c(COC(=O)c3ccccn3)cc2c1 > 76.9 µM, O=C(CSCc1cnn(-c2ccccc2)c1-n1cccc1)NCC1CCCO1 (configuration not stated) > 76.9 µM, CC(OC(=O)c1ccncc1)C(=O)Nc1cccc(Cl)c1 (configuration not stated) > 76.9 µM, CCOCCCNC(=O)C(c1ccc(C)cc1)N(Cc1ccc2c(c1)OCO2)C(=O)c1cnccn1 (configuration not stated) > 76.9 µM, COc1ccccc1C(=O)N1CCN=C1SC > 76.9 µM, O=C(CNC(=O)c1ccccc1)NCCc1nc2ccccc2[nH]1 > 76.9 µM, O=S(=O)(Cc1nc2ccccc2s1)c1ccccc1 > 76.9 µM, Cc1onc(-c2c(F)cccc2Cl)c1C(=O)Nc1ccc(S(=O)(=O)Nc2ncccn2)cc1 > 76.9 µM, O=C(Cn1cnc2ccccc21)Nc1cc(C(F)(F)F)ccc1N1CCOCC1 > 76.9 µM, C(#Cc1ccccc1)CN1CCN(c2ccccn2)CC1 > 76.9 µM, CC(C(=O)NCC1(c2ccccc2)CCCC1)N1CCCC1 (configuration not stated) > 76.9 µM, CCOC(=O)C1=C(C)Nc2nc(SCC(=O)OC)nn2C1c1cc(F)cc(F)c1 (configuration not stated) > 76.9 µM, CN(CCc1ccccn1)S(=O)(=O)c1ccccc1F > 76.9 µM, CCOC(=O)N1CCC(c2nc(C)sc2C(=O)O)CC1 > 76.9 µM, Cc1cc(=O)n2nc(N3CCCC3C(=O)NCc3ccccn3)sc2n1 (configuration not stated) > 76.9 µM, Cc1cnn(C(=S)NCc2ccc(Cl)cc2)c1 > 76.9 µM, COc1ccc(-c2csc(NCc3ccco3)n2)cc1 > 76.9 µM, CCOC(=O)c1cn(CC)c2ccc(S(=O)(=O)N3CC(C)CC(C)C3)cc2c1=O (configuration not stated) > 76.9 µM, COCC(C)NC(=O)c1cc(-c2cccc(OC)c2)on1 (configuration not stated) > 76.9 µM, CCOC(=O)Cn1nnnc1C(CC)N(Cc1cc2ccc(C)cc2[nH]c1=O)C1CCCC1 (configuration not stated) > 76.9 µM, Cc1cc(Br)ccc1NC(=O)C1CCCO1 (configuration not stated) > 76.9 µM, Cc1ccc2cccc(S(=O)(=O)n3nc(C)cc3C)c2n1 > 76.9 µM, COc1cc2c(cc1OC)-c1cc(NC3CCCC3)nc(=O)n1CC2 > 76.9 µM, O=c1[nH]c(-c2cccs2)nc2ccccc12 > 76.9 µM, O=C(c1nc2ccccc2s1)N1CCN(c2ccccn2)CC1 > 76.9 µM, Cc1nc2ccccc2c(=O)n1/N=C/c1c(O)ccc2oc3c(c12)CCCC3 > 76.9 µM, COCCN1C(=O)C(=O)/C(=C(/O)c2ccc(OC(C)C)cc2)C1c1cccnc1 (configuration not stated) > 76.9 µM, O=c1c2c3nc4ccccc4nc3n(-c3ccc4c(c3)OCCO4)c2ncn1CC1CCCO1 (configuration not stated) > 76.9 µM, CC(=O)NC(Cc1cc(C)ccc1C)C(=O)N1CCN(C(=O)Nc2ccc(C(C)=O)cc2)CC1 (configuration not stated) > 76.9 µM, COc1cc2c(cc1NC(=O)c1cncc(Br)c1)oc1ccccc12 > 76.9 µM, Cc1ccc(CS(=O)(=O)CCC(=O)NCc2ccc3c(c2)OCO3)cc1 > 76.9 µM, COc1cc2c(cc1NC(=O)Cn1cnc3c1c(=O)n(C)c(=O)n3C)oc1ccccc12 > 76.9 µM, COc1cc(OC)cc(C(=O)Nc2ccc3c(c2)COC3=O)c1 > 76.9 µM, CCCS(=O)(=O)N1CCC(C(=O)NCCCN2CCCC2=O)CC1 > 76.9 µM, CCc1ccccc1S(=O)(=O)Cc1ccc(C(=O)NCC2CCCO2)o1 (configuration not stated) > 76.9 µM, CCOC(=O)c1ccc(N2C(=O)C3C(C2=O)C(C(=O)c2ccc(Cl)cc2)N2CCCC32)cc1 (configuration not stated) > 76.9 µM, CSc1nnc2c3ccccc3n(Cc3ccccc3)c2n1 > 76.9 µM, CSc1ccccc1NC(=O)COc1ccc(S(=O)(=O)N2CCCC2)cc1 > 76.9 µM, COc1ccc(CN(C(=O)c2oc3ccccc3c2C)C2CCS(=O)(=O)C2)cc1OC (configuration not stated) > 76.9 µM, CSC1CCCCC1(O)CSc1nc2ccccc2o1 (configuration not stated) > 76.9 µM, Cc1noc(C)c1C(=O)N1CCN(CCc2ccccc2)CC1 > 76.9 µM, CCc1ccc(N/C(SC)=C(/C#N)C(N)=O)cc1 > 76.9 µM, Cc1ccc2c(c1)N(CC(=O)N1CCCc3ccccc31)C(=O)C(C)O2 (configuration not stated) > 76.9 µM, Cc1noc(C)c1COC(=O)c1ccc2c(c1)OCCO2 > 76.9 µM, CSc1c[n+]2c(n1C)CCC2 > 76.9 µM, O=C(CN1CCN(c2ccccn2)CC1)NCCc1ccccc1 > 76.9 µM, Cc1ccc(C)c(Cn2c(=O)n(CCCC(=O)NCc3ccco3)c(=O)c3ccccc32)c1 > 76.9 µM, C=C(C)CN=c1scc(C)n1/N=C/c1ccco1 > 76.9 µM

Reference: PubChem BioAssay AID360 (National Center for Advancing Translational Sciences (NCATS), 2006)
